Measured values reported in publication PMC4336329 (PLoS ONE, 2015).
Screen size: about 310,000 compounds; about 14,000 (4.5%) showed an effect of 50% or more. Effects have a minus sign here. The list shows a part of the results.

Molecular target: human ether-à-go-go-related gene (hERG) potassium channel (human, UniProt Q12809)
Assay: primary screen, population patch clamp on CHO cells stably expressing hERG
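Note: peak tail current of the secondary pulse compared with the same well before compound.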

human ether-à-go-go-related gene (hERG) potassium channel, sequence (Q12809 whole entry, looked up): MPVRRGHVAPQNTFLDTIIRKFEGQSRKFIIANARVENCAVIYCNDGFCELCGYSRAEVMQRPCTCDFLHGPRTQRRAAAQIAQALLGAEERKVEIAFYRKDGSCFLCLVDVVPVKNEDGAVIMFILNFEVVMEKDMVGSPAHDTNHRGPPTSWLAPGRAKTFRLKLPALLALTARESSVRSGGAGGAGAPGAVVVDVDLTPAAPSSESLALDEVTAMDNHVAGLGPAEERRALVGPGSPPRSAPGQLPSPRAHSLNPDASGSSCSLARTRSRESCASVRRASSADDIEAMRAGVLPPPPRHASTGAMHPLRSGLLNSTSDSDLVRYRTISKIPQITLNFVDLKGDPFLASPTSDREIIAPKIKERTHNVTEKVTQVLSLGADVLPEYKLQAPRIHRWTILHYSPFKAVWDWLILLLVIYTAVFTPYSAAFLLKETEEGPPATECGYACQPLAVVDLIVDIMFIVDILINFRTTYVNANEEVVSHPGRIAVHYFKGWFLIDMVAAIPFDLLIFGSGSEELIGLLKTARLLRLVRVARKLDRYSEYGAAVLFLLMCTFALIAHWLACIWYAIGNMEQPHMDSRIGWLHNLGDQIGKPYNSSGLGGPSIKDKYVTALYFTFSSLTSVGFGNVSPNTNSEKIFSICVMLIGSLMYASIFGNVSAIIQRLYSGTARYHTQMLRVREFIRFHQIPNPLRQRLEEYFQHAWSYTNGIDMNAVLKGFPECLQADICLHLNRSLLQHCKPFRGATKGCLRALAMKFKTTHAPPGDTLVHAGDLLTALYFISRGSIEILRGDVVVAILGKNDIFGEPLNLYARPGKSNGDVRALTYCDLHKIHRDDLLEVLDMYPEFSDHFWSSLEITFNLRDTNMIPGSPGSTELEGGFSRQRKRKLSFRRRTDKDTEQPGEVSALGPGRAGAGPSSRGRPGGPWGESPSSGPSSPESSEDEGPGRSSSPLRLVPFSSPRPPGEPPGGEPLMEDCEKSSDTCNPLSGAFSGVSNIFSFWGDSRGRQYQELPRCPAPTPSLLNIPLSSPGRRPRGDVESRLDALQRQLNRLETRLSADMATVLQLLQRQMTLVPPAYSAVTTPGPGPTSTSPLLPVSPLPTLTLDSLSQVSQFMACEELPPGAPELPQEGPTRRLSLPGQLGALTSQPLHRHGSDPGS

Row | Compound | hERG current change (%, negative = inhibition) at 10uM [%]
1 | C=CCOC(=O)C1C(=O)CC(C)(O)C(C(=O)OCC=C)C1c1ccc(N(C)C)cc1 (centres unmarked) | 12.5
2 | Cc1cccc(Nc2c(-c3ccc(N4CCOCC4)cc3)nc3ncccn23)c1 | 0.307
3 | Cc1ccc(/C=N/Nc2ccc(Cl)c(C(=O)O)c2)s1 | 10
4 | Cc1cnn(-c2cc(N/N=C/c3ccccc3F)ncn2)c1 | 7.71
5 | CCCN(C(=O)c1cnccn1)c1c(N)n(Cc2ccccc2)c(=O)[nH]c1=O | 0.0848
6 | CCOCc1cc(CN2CCC(CCC(=O)NC3CC3)CC2)ccc1OC | -62.1
7 | Cl.c1ccc2c(N3CCOCC3)nc(N3CCOCC3)nc2c1 | -19.4
8 | O=C1CC(c2ccc(Cl)cc2)SC(N(c2ccccc2)c2ccccc2)=N1 (centres unmarked) | -9.95
9 | c1ccc(-c2noc(-c3ccno3)n2)nc1 | -11.6
10 | CCCc1ccc(C2=Nn3c(nnc3C(C)C)SC2)cc1 | -6.25
11 | CC(C)c1nc(SCC(=O)N2CCc3ccccc32)n[nH]1 | -15.4
12 | O=c1c2ccccc2nnn1CCO | 23
13 | Cc1nc(-c2ccc(S(=O)(=O)Nc3ccccc3C)cc2)co1 | -4.2
14 | Cc1c(Cl)c([N+](=O)[O-])nn1CCCC(=O)N1CCN(c2ccccc2)CC1 | -58
15 | Nc1ccccc1Nc1ccc([N+](=O)[O-])cc1[N+](=O)[O-] | -28.8
16 | Cc1c(-c2ccc(F)cc2)[n+](=O)c2c(n1[O-])CCCCC2 | 17.5
17 | Nc1nc2n(n1)C(c1cccs1)CC(c1ccccc1)N2 (centres unmarked) | -23.5
18 | Cc1ccc(S(=O)(=O)N2CCC(=O)N(CCOCc3ccccc3C)CC2)cc1 | 1.16
19 | O=C(C1=C[C@H](c2csc3ccccc23)C[C@H](OCCCCO)O1)N1CCN(Cc2ccc3c(c2)OCO3)CC1 | -12.8
20 | Cc1ccc(C)c(NC(=O)Cn2nc(-c3ccccc3)nc2-c2ccccc2)c1 | 8.98
21 | CCCc1nnc(SCCSc2nnc(CCC)n2N)n1N | 6.88
22 | Cc1c(Cl)cccc1N(Cc1ccc(C(=O)O)cc1)S(=O)(=O)c1ccccc1 | -4.17

Row | Compound | hERG current change (%, negative = inhibition) at 10uM [%]
23 | CCN1CCN(C(c2ccccc2F)c2nnnn2Cc2ccc3c(c2)OCO3)CC1.Cl (centres unmarked) | -37.6
24 | O=C(Nc1ccnn1C1CCN(Cc2cc3ccccc3[nH]2)CC1)C1CCOC1 (centres unmarked) | -31.5
25 | O=C(CS(=O)(=O)c1cccc(Cl)c1)Nc1ccccc1Cl | 1.6
26 | Cc1cc(C)nc(NS(=O)(=O)c2ccc(N3C(=O)C4CC=C(Cl)CC4C3=O)cc2)n1 (centres unmarked) | 1.81
27 | CCOc1ccc(N2CC(C(=O)Nc3ccc(S(=O)(=O)N4CCOCC4)cc3)CC2=O)cc1 (centres unmarked) | -8.96
28 | COC(CNC(=O)C1CCCCC1C(=O)O)OC (centres unmarked) | -1.45
29 | COc1cccc(/C=C/C(=O)OCC(=O)Nc2cc(S(=O)(=O)N3CCOCC3)ccc2C)c1 | -1.3
30 | COc1ccc(/C=C2\N=C(C(C)(C)C)OC2=O)c(OC)c1 | 19.5
31 | N#Cc1ccccc1Oc1ccc(S(=O)(=O)N2CCCCC2)cn1 | -79.6
32 | CCc1ccccc1OCC(=O)Nc1cc(S(=O)(=O)N(CC)CC)ccc1N1CCOCC1 | -7.83
33 | Cc1nc(CCNS(=O)(=O)c2cccs2)cs1 | 2.51
34 | COc1ccc2ccccc2c1CNC(C)CCc1ccccc1.O=C(O)C(=O)O (centres unmarked) | -77.8
35 | O=C(c1ccc(Cl)cc1)C1CCCN(Cc2cccc3cccnc23)C1 (centres unmarked) | -75.9
36 | N#CC(C#N)=Cc1ccc(OC(=O)c2ccccn2)cc1 | 1.46
37 | Nc1nnc(SCCOc2ccccc2)s1 | -10.1
38 | O=C(COc1cccc2cccnc12)N/N=C/c1ccccc1O | -5.32
39 | C[C@H]1[C@H](OC(=O)CCC(=O)NCc2ccc(C(=O)O)cc2)O[C@@H]2O[C@@]3(C)CC[C@H]4[C@H](C)CC[C@@H]1C24OO3 | -0.65
40 | CCCCNC(=O)OCC(CC)NC(=O)OC(C)C (centres unmarked) | 9.29
41 | COc1ccc(NC(=O)CSc2nnc(N)s2)cc1 | 19
42 | CCN1CCN(C(=O)C23CCC(C)(C(=O)C2Br)C3(C)C)CC1 (centres unmarked) | 1.48
43 | CN1CCN(S(=O)(=O)c2ccc(N(C)Cc3ccc(C(F)(F)F)cc3)c([N+](=O)[O-])c2)CC1 | -5.45
44 | Cc1cccc(NS(=O)(=O)c2cccc(C(=O)Nc3cccc(C(=O)O)c3)c2)c1 | 15.4
